# The supplement of paper PMC3334620
# Over roughly 33,000 sequences, “E-score (-0.5 to 0.5)” has its median near -0.035; the highest 2% begin near 0.35. This is one part of the list.
# Biological target: T1, Pdr3 (UniProt P33200)
# T1 sequence: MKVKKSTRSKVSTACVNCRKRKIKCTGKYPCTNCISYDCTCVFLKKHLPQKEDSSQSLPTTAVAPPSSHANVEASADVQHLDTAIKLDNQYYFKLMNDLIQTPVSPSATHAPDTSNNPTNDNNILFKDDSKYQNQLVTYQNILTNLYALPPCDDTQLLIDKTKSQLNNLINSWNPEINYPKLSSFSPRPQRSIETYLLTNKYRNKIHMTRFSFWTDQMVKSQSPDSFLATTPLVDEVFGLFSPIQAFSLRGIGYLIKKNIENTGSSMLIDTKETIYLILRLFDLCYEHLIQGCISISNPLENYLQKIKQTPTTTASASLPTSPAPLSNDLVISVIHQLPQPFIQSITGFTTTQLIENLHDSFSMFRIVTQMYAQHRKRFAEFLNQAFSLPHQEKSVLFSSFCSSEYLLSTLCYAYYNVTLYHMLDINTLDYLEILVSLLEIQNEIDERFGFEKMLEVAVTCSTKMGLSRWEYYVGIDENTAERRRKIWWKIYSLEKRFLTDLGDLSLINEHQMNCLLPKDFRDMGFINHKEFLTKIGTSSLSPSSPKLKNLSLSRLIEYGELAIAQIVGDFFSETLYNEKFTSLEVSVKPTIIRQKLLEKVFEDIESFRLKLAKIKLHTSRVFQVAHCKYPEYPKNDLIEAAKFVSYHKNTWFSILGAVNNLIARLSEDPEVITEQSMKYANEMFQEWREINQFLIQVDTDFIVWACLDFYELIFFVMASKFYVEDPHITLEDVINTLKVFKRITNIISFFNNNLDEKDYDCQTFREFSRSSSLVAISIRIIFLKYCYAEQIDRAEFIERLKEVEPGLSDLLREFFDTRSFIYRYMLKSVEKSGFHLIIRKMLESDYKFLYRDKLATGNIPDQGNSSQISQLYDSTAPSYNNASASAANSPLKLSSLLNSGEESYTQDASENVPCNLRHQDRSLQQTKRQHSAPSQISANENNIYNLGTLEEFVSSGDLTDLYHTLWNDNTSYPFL
# Test: PBM E-score (8-mer binding enrichment) (E-score (-0.5 to 0.5)); higher = stronger / more preferred TF binding; most listed sequences are background and not binding sites
# Details: protein concentration: 200 nM; construct: GST-full length
# In short: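 Yeast transcription factors, full-length or as DNA-binding domains, were expressed with a GST tag using PURExpress in vitro transcription/translation. At about 100-200 nM they were applied to universal all-10-mer Agilent arrays, double-stranded by primer extension on fresh or once-stripped slides. Fluorescent anti-GST detected bound protein, and masliner normalised the scans. E-scores for ungapped eight-base words, pooled with reverse complements, came from the Universal PBM Analysis Suite.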
row,Sequence,PBM E-score
1,AACGCAAA,0.0603
2,ATAACGCG,0.168
3,GCATTAAA,-0.19
4,CGGCGTAC,0.0859
5,GATAGCGC,0.00808
6,AGATGGCC,0.0525
7,ACTACTCG,0.155
8,CCGAAGGC,0.0757
9,ACAAAAAT,-0.0114
10,AACACCAT,0.0653
11,AGAAGTGA,-0.146
12,ATCTTAGC,-0.2
13,CCACTGCC,0.0187
14,CTCAAGAA,-0.131
15,GGATGAAA,0.207
16,CATGGAAC,-0.0483
17,CTTCTAGC,-0.247
18,GATTGCTA,-0.175
19,AGCCCTTG,-0.198
20,TAGATCGA,-0.0685
21,GGGAGAAC,0.00594
22,ATTGTTTG,-0.0829

row,Sequence,PBM E-score
1,TCAGTTCA,-0.0302
2,GTGTGAAC,-0.0574
3,AACCCTGT,-0.104
4,AAGGTAAC,-0.00773
5,ACTTGCAA,-0.0567
6,TGGGCACA,0.00672
7,ATGGGCAA,0.0327
8,TCGACAGA,-0.14
9,CGCGACCC,0.00268
10,CAATTCTG,-0.0556
11,TGCTAAAA,-0.248
12,GCTGAATA,-0.197
13,AATGGTCA,-0.0101
14,AAAAAAGC,-0.211
15,CACTATCC,0.00589
16,CCGATGGC,0.175
17,GATCGGCA,0.0987
18,CCGTCACC,0.104
19,ACATCAGG,-0.0839
20,AGAGGGCT,-0.364
21,AACGTTCT,0.0356
22,ATGCCATA,-0.229

row,Sequence,PBM E-score
1,ACGGAAGT,0.393
2,CGGATGTC,0.325
3,AGGATACT,-0.0749
4,ACGCATTA,-0.214
5,AGAATAGA,-0.132
6,ACCAGCAT,-0.125
7,ATTTAGGG,0.0786
8,AGGCATAT,-0.108
9,ATAGGAAC,-0.0862
10,GGTATACA,-0.0963
11,CCGGCCCG,0.375
12,AAACAGAG,-0.152
13,ATACCTTG,-0.152
14,CAGAGTTA,0.0193
15,CGACCGTA,0.0323
16,ACGATTGA,-0.0575
17,CCACCCGA,0.216
18,GGGTTCCA,-0.0331
19,ACTGCAGG,-0.252
20,GAGCCCTC,-0.153
21,GTGCTATA,-0.0694
22,CTTCAAGC,-0.109

row,Sequence,PBM E-score
1,ACGTCCAG,-0.186
2,AGAAGACT,-0.305
3,ATAATTTA,0.119
4,TACGTTAA,-0.151
5,AGAATCTC,-0.0751
6,CGTACCCA,-0.111
7,GCTCATTA,-0.0242
8,ATTACGGC,0.0318
9,GTTGGAAA,-0.0837
10,CATTTGCG,0.0507
11,AGTGCGAA,-0.0442
12,CTAGCCAA,0.0338
13,AATACTCT,-0.0737
14,ATCCCTCA,-0.0655
15,ACACTGGG,-0.148
16,ATATCTTA,0.0771
17,ACGCCAGG,0.0401
18,AACTTACT,-0.125
19,GGAATGCC,0.289
20,TCATCTCA,0.117
